# The supplement of paper PMC3334620
# Whole data set: some 33,000 sequences, median “E-score (-0.5 to 0.5)” near -0.053, cut for the highest 2% near 0.37. The list shows a part of the results.
# Target: Hap1 (UniProt P0CE41)
# Assay: PBM E-score (8-mer binding enrichment) (E-score (-0.5 to 0.5)); higher = stronger / more preferred TF binding; most listed sequences are background and not binding sites
# Conditions: protein concentration: 200 nM; construct: GST-DNA-binding domain
# Procedure: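 Universal 'all 10-mer' protein binding microarrays (Agilent AMADID 015681) probed with GST-tagged S. cerevisiae TFs (full-length or DBD) made by in vitro transcription/translation (PURExpress), about 100-200 nM. Bound TF was detected with fluorescent anti-GST. Each ungapped 8-mer (which stands for itself and its reverse complement) is scored by the PBM enrichment score (E-score), a modified Wilcoxon-Mann-Whitney statistic from -0.5 to +0.5, computed with the Universal PBM Analysis Suite. Scale: above 0.35 generally sequence-specific binding.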
# Chain of UniProt P0CE41 (P0CE41 whole entry): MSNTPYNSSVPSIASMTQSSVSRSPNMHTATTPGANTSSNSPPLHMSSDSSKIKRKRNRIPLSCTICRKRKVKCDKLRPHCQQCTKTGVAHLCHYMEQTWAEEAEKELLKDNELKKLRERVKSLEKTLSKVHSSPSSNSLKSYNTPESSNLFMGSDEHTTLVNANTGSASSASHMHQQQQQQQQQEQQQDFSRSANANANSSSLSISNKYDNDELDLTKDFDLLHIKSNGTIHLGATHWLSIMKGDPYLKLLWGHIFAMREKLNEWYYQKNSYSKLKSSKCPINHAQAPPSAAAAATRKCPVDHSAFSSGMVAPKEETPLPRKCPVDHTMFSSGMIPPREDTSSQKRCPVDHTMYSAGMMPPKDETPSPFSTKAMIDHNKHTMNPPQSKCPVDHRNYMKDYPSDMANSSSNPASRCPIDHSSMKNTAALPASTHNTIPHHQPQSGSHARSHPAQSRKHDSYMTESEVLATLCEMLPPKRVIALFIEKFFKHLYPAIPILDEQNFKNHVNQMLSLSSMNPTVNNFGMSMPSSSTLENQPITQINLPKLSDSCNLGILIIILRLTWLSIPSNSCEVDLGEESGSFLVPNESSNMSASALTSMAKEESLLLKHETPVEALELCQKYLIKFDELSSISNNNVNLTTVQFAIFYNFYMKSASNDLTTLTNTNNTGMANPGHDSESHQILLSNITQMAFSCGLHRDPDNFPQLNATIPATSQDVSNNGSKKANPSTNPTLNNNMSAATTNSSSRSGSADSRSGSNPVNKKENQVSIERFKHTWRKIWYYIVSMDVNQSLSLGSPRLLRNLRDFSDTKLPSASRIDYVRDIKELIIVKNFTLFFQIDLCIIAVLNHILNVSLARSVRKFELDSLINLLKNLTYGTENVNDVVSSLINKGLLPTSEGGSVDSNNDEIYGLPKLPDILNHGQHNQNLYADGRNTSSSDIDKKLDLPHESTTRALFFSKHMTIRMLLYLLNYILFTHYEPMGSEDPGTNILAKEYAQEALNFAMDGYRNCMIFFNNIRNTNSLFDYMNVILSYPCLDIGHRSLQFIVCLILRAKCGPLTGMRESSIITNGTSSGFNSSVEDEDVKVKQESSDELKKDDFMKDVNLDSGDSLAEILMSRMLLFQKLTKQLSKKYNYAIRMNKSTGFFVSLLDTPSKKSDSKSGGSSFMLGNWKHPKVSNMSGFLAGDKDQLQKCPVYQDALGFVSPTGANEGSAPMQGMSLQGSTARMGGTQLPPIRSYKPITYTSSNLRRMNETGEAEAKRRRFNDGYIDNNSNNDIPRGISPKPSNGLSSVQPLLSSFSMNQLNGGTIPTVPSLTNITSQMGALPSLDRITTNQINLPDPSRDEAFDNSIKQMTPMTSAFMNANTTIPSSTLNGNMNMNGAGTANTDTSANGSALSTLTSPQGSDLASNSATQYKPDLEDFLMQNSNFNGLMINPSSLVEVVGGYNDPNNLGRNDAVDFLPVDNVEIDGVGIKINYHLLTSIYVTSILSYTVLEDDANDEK
row,Sequence,PBM E-score
1,CAAAGGGG,-0.115
2,AGATTCAG,-0.117
3,CCTAGGCC,-0.148
4,AGCCAGCG,-0.122
5,CGGAGTGA,0.267
6,ACTCTCCT,-0.0997
7,AATGTCAG,-0.181
8,CAAAGATC,-0.0994
9,ACTCTCTA,-0.271
10,GCCGACGC,0.245
11,ATCCTAAT,-0.118
12,ATCATCTA,-0.0863
13,ACCCAGCA,0.00442
14,CACCCAGA,-0.205
15,CCTTGTTC,-0.052
16,CATTGGCG,-0.188
17,ATAGTGAC,-0.0461
18,GCAGCGAA,-0.0326
19,ATTCTAGG,-0.167
20,AGGAACAG,-0.352
21,CTACAGAC,-0.2
22,ATGTTTTC,-0.00321
23,ATCAAATA,-0.0946
24,GATGTGCA,-0.104
25,ATGGTTGC,-0.211

row,Sequence,PBM E-score
1,ATGACGTA,-0.199
2,CAAGAACG,-0.0631
3,ACTTAACA,-0.0435
4,ACAAAGCA,-0.0801
5,AGCTCACG,-0.0873
6,CGCTACAC,0.053
7,ATACCTGC,-0.135
8,ATCGTAAT,0.0647
9,CCATTCAA,-0.16
10,AGCTAATG,-0.112
11,CGAGACAA,-0.131
12,GGAGACAC,0.122
13,CACTATAC,-0.157
14,AATGTGTA,-0.309
15,AGGGACGG,-0.0072
16,CGCCGCGC,0.147
17,TATCGCAA,0.0843
18,CAGAAGCC,-0.0458
19,GAGTGAAC,-0.0567
20,ACAGCGTA,-0.0549
21,GAAGGACA,0.0299
22,ACTCTACG,-0.109
23,GGCCTGAA,-0.118
24,GGAAACCA,-0.0131
25,CAATCAAC,0.0213

row,Sequence,PBM E-score
1,ACTTGTCG,0.0391
2,AGTTTCTC,-0.085
3,AAATGTAA,0.0697
4,CATGTCCA,-0.0578
5,CTACCCAA,-0.193
6,GTCGCGCA,-0.00208
7,CTACAAAG,-0.0829
8,AGTGACAG,-0.0898
9,GATCAGAA,-0.31
10,CATTCAGC,-0.147
11,AAGGGCAA,0.181
12,ATACCCCG,0.346
13,CAGCTATG,-0.287
14,CATGGACA,-0.324
15,ACCCGACC,0.241
16,GATCGACC,0.152
17,TAGGGCAA,-0.119
18,CAGTCATA,-0.0907
19,CCGCTTGA,0.195
20,AACAGGCG,-0.0897
21,GCGTGGCA,-0.192
22,ATAATGTA,-0.135
23,CAGTGTTA,0.0338
24,GTTATTCA,-0.111
25,ATGCACTA,-0.142

row,Sequence,PBM E-score
1,GCCCTCCC,-0.0121
2,AGCGATAT,0.11
3,CAAAATAC,-0.082
4,CCAATTGA,-0.22
5,ATCACCTG,-0.158
6,GACCCAAA,-0.00261
7,GGCAAGAC,0.0214
8,CGCCACCC,-0.193
9,TAAGTGAA,-0.0402
10,ATTATTGG,0.0397
11,GCTAAAGC,0.0298
12,CCTAGATC,-0.193
13,ACTCTGCA,-0.184
14,GCGAGCCA,-0.157
15,CAGATCGG,0.274
16,CGTACAGC,0.0577
17,CCCGTAAG,0.18
18,ACCATTTC,-0.0887
19,AACCCATC,-0.113
20,ATGGACAT,-0.0927
21,GTAGTGTA,-0.148
22,CCTCTTTA,-0.303
23,CGGTTCAG,0.0909
24,CAGAAATG,-0.227
25,GGGTGAGA,-0.0757

row,Sequence,PBM E-score
1,ATGATAGA,-0.0779
2,CCTACAAG,-0.194
3,GAGAGATA,0.0119
4,CGACTCTA,-0.164
5,CCCTGACC,-0.102
6,CACCACAG,-0.197
7,ACCAAACA,-0.119
8,ACAGCCCC,-0.0199
9,GCGCAGAC,-0.0399
10,AAGGCTTC,-0.0462
11,CTCCCGAC,0.035
12,ACGCGATG,0.025
13,CCAGAAGA,-0.31
14,CCTTTCAA,-0.113
15,CAAAGAAC,-0.144
16,ACCTCAAC,-0.0532
17,CCATCAGA,-0.216
18,GTATAGAA,-0.0728
19,AGGATCAC,-0.175
20,CCCTCAAG,-0.233
21,CTGACGTA,-0.024
22,CTCGGTGA,0.332
23,CTAGCGTC,-0.0893
24,ACTGTATA,-0.22
25,ATGAACGG,0.08

row,Sequence,PBM E-score
1,AGTGATCG,-0.199
2,ACGGCGAA,0.0956
3,ATCTGTAC,0.00451
4,CATGAAAC,-0.0437
5,TACGTCCA,-0.0359
6,CCCTGGTA,-0.373
7,GTCGACGA,0.0207
8,GAAAGGCA,-0.04
9,CAACCTAA,-0.301
10,GGAGTGGA,-0.119
11,CTGGTGCC,-0.217
12,ATACCATA,-0.197
13,ACGCCCGT,0.251
14,CGTTGAGC,0.0372
15,TGGACGAA,-0.0532
16,AAATAACT,0.0585
17,CATTAAGG,0.00986
18,AGCTATGG,-0.0902
19,CGACACCG,0.276
20,GGACAGTA,0.157
21,CACCTGAA,-0.0754
22,CTGCTTTA,-0.00871
23,TCGGTTCA,0.105
24,CACCTATC,-0.0149
25,CTACCGGA,0.412

row,Sequence,PBM E-score
1,TAAAATAA,-0.108
2,CGGACTTC,0.405
3,GCTCGACC,-0.0718
4,ACAGTAAT,-0.177
5,AACGAGCG,-0.00418
6,AAGTCGCG,-0.0433
7,ATTCTGCG,0.128
8,AATCTGGC,-0.0469
9,GATGCTCA,0.0473
10,AGGGCAGG,-0.118
11,CGGGAGGA,0.214
12,GATGGCGA,0.0618
13,AGAATACA,-0.0427
14,GTAGACCA,-0.229
15,AATATCGT,0.0191
16,TGCTAACA,-0.0989
17,CGTTTCAA,-0.112
18,ATTGGATA,-0.117
19,ACCTGGCA,-0.167
20,ATCTTATG,-0.179
21,ACTGGGTA,-0.124
22,AAATTTCA,-0.377
23,TACCACTA,-0.237
24,AAGAAACA,0.00593
25,GGGCACCC,-0.0275

row,Sequence,PBM E-score
1,ACCAGTAT,0.204
2,CAGGACAG,-0.195
3,ATCAAATC,0.00784
4,CCGATTAC,0.246
5,AATTGAGA,-0.0628
6,GAGGCCAA,-0.0324
7,ATGGGACA,0.0407
8,GCACGGCC,0.196
9,ACTATGAT,-0.214
10,ACATTAGC,-0.0519
11,CATTAGAA,-0.138
12,ACTTACTC,-0.09
13,CGCCTCGC,0.0121
14,CGCCCGTA,0.142
15,ACCACGAG,-0.0595
16,AGCTTGTC,0.0222
17,AATGATCG,0.067
18,ATTTATAG,-0.141
19,CCACCCCA,-0.183
20,CGGACGCA,0.35
21,ATATTACG,0.195
22,CATAAGTA,-0.0126
23,CGCCTGAG,-0.0799
24,GAAATAAA,0.198
25,CGACCGCG,0.283

row,Sequence,PBM E-score
1,ACACACCT,0.0496
2,AATGGTAA,0.00211
3,CAAACTGA,-0.116
4,GAGACATA,-0.111
5,CGATCACA,0.0371
6,GCTGTTGA,-0.0967
7,CCCTAATA,-0.0869
8,GCATTCAA,-0.105
9,ACGATGAG,-0.127
10,GTGTGCAA,-0.23
11,CAATGACA,-0.207
12,CTACAGCA,-0.0571
13,GAGACCAA,0.172
14,AATTAAGA,-0.0701
15,GCCTTTTA,-0.0799
16,ACTAAAAA,0.162
17,GATCTTCA,0.0446
18,CTCGAAAG,-0.0952
19,ACTCCCAA,-0.155
